Experimental data: PubChem BioAssay AID445 (National Center for Advancing Translational Sciences (NCATS), 2006)
Screen size: about 110,000 compounds; about 40 (0.04%) were called active. The inconclusive results got no clear call from the source; some entries with a clear call stand among them for comparison. Calls come from the whole dose curve; as a rule, active = well fitted curve in the direction sought with a large enough effect in the signal ratio (not every such curve was filed as active); inconclusive = small, poorly fitted or top-dose-only effect, or a change in a side signal; inactive = flat fitted curve, though single readings scatter; the % refers to the signal ratio. A potency beside an inconclusive call is a rough fit, not a confirmed value.

test: IkB Signaling; settings: ABC-DLBCL IkBa-CBG/CBR dual luciferase ratio (green luciferase fused to IkBa over red control in OCI-Ly3 lymphoma cells), 4 h; IkBa stabilization activation: at 57.1 µM (top of the series), scaled: untreated 0%, proteasome inhibitor 100% unless noted;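 for IkBa stabilization activation: 0% = basal untreated cells and 100% = reference inhibitor full response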
Outline: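 Curves were fitted separately to fusion (green), unfused (red) and ratio luminescence, then classed by r2, magnitude and activity. Cells: OCI-Ly3, 4 h compound plus doxycycline at 37C; 10 uM MG-132 defined full response.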
Potency is the fitted concentration of half-maximal effect.

Structure (SMILES)	IkBa stabilization activation	Potency
Cc1ccc(C(=O)OCC(=O)c2ccc(Cl)s2)s1	inactive: 0.754%	–
O=C(c1cn(-c2ccccc2)nc1-c1ccccc1)N1CCOCC1	inactive: 4.83%	–
O=C1C(C=NCc2ccco2)=C(O)c2ccccc21	–	inconclusive: 15.8 µM [signal inhibitor, partial curve]
O=C(Nc1ccc(F)cc1F)c1cc2ccc3cccnc3c2[nH]1	–	inconclusive: 2.51 µM [signal inhibitor, partial curve]
CCOC(=O)c1ccc(NC(=O)c2c(NCc3cccc(OC)c3)sc3c2CCC3)cc1	inactive: -1.01%	–
Cc1ccc(S(=O)(=O)NC(CN2CCOCC2)=NCCNS(=O)(=O)c2ccccc2)cc1	inactive: 0.562%	–
c1ccc(-c2cnnc(SCc3cn4cccnc4n3)n2)cc1	inactive: -0.455%	–
Cn1cc(S(=O)(=O)N2CCCCCC2)cc1C(=O)Nc1ccccc1F	inconclusive: 2.94% [signal inhibitor]	–
CN1CCN(C(=O)c2cc(-c3ccccc3)on2)CC1	inconclusive: 18.4% [signal inhibitor]	–
Cc1cc(C)n(-c2ccc(C(=O)OCn3nnc4ccccc4c3=O)cc2)n1	inactive: 3.37%	–
COc1ccc2oc(-c3ccc(C)c(NC(=O)c4sc5ccccc5c4Cl)c3)nc2c1	inconclusive: 1.39% [signal inhibitor]	–
CCc1cc2c(N3CCN(c4nnc(CC)s4)CC3)ncnc2s1	inconclusive: 1.35% [signal inhibitor]	–
COc1ccc2c(Cc3c4ccccc4cc4ccccc34)cncc2c1O	inconclusive: 19% [signal activator] [at 11.4 µM, scaled: untreated 0%, proteasome inhibitor 100%]	–
COc1cccc(C(=O)NCC(c2ccc(N(C)C)cc2)N2CCc3ccccc32)c1OC (centres undefined)	inconclusive: 5.24% [signal inhibitor]	–
COc1cccc(-c2nn(C)c3sc(C(=O)NCc4ccc(C)cc4)cc23)c1	inconclusive: 4.15% [signal inhibitor]	–
CCOc1ccc(NS(=O)(=O)c2ccc3[nH]cc(C(=O)NC(C)CC)c(=O)c3c2)cc1 (centres undefined)	inconclusive: 4.93% [signal inhibitor]	–
CCN(CC)C(=O)c1sc2c(c1C)c(=O)n(-c1ccc(OC)cc1OC)c(=O)n2Cc1cc(C)ccc1C	inactive: -1.14%	–
N#Cc1c(C(F)(F)F)cc(-c2ccco2)nc1SCc1ccncc1	inactive: 1.15%	–
CCOC(=O)c1ccc(COC(=O)c2nonc2N)cc1	inactive: -0.967%	–
CCN(CCCNC(=O)CSc1cc(=O)n(C)c2cc(Cl)ccc12)c1ccccc1	inactive: -2.6%	–

Structure (SMILES)	IkBa stabilization activation	Potency
CN1CCN(CCNC(=O)c2cnn(-c3cccc(Cl)c3)c2C2CCN(C(=O)OC(C)(C)C)CC2)CC1	inactive: -2.39%	–
Cc1ccc(NC(=O)CSc2ncc3c(n2)-c2ccccc2N(C)S3(=O)=O)c(Cl)c1	inconclusive: -0.793% [signal activator]	–
COc1ccc(CN(C)c2ccc(-c3nc(C)no3)cc2[N+](=O)[O-])cc1	inactive: 3.01%	–
CCC(CC)C(=O)Nc1cccc(-c2nc3ncccn3c2C)c1	inconclusive: -0.746% [signal inhibitor]	–
Cc1cccc(/C=C\c2ccccc2)n1	inactive	–
Cc1ccc(N2C(=O)c3n[nH]c(C)c3C2c2ccco2)cc1 (centres undefined)	inactive: 2.33%	–
CCC1CN(C(=O)N2CCC(C(=O)NCCCc3ccccc3)CC2)c2ccccc2O1 (centres undefined)	inconclusive: 3.09% [signal inhibitor]	–
Cc1cccc(-c2noc(CCC(=O)Nc3ccccc3)n2)c1	inconclusive: 0.506% [signal inhibitor]	–
Cc1nc(SCC(=O)N2CCCc3ccccc32)c2oc3ccccc3c2n1	inactive: -0.654%	–
COc1cccc(C(=O)Nc2cccc(-c3nnc(-c4ccccc4)o3)c2)c1	inconclusive: 10.6% [signal inhibitor]	–
CCN1CCN(c2cc(C)c3cc(NC(=O)c4cc(Br)ccc4Cl)ccc3n2)CC1	inconclusive: 0.491% [signal inhibitor]	–
CCCC12CN3CC(C)(CN(C1)C3c1cn(CC)c3ccccc13)C2=O (centres undefined)	inconclusive: 1.53% [signal inhibitor]	–
CCOC(=O)c1c(C)[nH]c(CCC(=O)Nc2ccccc2OCC)c1C	inconclusive: -1.48% [signal inhibitor]	–
COc1ccc2oc(=O)cc(CN3CCN(c4ccccc4OC)CC3)c2c1	inactive: 1.54%	–
O=C(NCc1nc2ccccc2[nH]1)c1ccc(Cl)c(S(=O)(=O)N2CCCC2)c1	inconclusive: 7.78% [signal activator]	–
O=C(NCc1ccccc1Cl)c1ccc2nc(Cc3ccccc3)oc2c1	inconclusive: 1.36% [signal inhibitor]	–
CC(=O)N1CCCc2cc(S(=O)(=O)N3CCC(C(=O)NCc4ccccc4Cl)CC3)ccc21	inactive: 1.12%	–
CCC(=O)N1c2ccccc2CC1C(=O)NCCN1CCN(c2cccc(Cl)c2)CC1 (centres undefined)	inconclusive: 3.5% [signal inhibitor]	–
COc1cccc(-c2nnc(NC(=O)c3ccc(S(=O)(=O)N4CC(C)OC(C)C4)cc3)o2)c1 (centres undefined)	–	inconclusive: 31.6 µM [rising, partial curve]
